“And” between values parts separate entries of the source, which are not always exact repeats. Equal values may be shown once. In all, about 150,000 compounds went through this assay and about 540 (0.36%) showed an effect of 50% or more. The list shows a part of the results.
Tested on: Plasmodium falciparum
Experiment: Primary screen in NF54 nanoGlo assay, in single point, at 2uM, 72h; a lower Z score goes with more inhibition
Format: functional, Erythrocyte
Details: timepoint 72 hour

Structure (SMILES)	% Inhibition [%]	Z score	% Inhibition (2 µM)
Cn1nccc1C(=O)N1CCC(F)(F)[C@@H](COCc2ccccc2)C1	1	-0.22	
CC(C)(C)OC(=O)N1CCN(C(=O)CC#N)CCN(C(=O)CC#N)CC1	-9	1.57	
CCC(=O)NCCn1nc(C(F)(F)F)c2c1CCOC2	0	-0.05	
CCCC(CCC)C(=O)NCc1ccc[nH]1	-3	0.46	
Cc1nnc(N2CC(C)(C)[C@H]2c2nccn2C)nc1C	-8	0.96	
Cc1cccc(NC(=O)c2ccc(COc3cccc4ccccc34)o2)n1	-21	2.85	
CC1=C(c2ccccc2)[C@H]1C(=O)N1CCC(c2nccn2CC2CCC2)CC1	1	-0.14	
O=C(c1cc[nH]n1)N1CCC(n2c(=O)[nH]c3ccccc3c2=O)CC1	-16	2.06	
O=C(NCc1nnc2n1CC[C@H](C(F)(F)F)C2)Nc1ccccc1	-10	1.98	
N[C@H]1CCN(C(=O)CCc2nc3cc(Br)ccc3s2)C1			-6% and 4%
Cn1nc(C(=O)N2CCc3nc(NC(=O)c4ccccn4)sc3C2)ccc1=O	-13	2.51	
CN1CCN(CCC(=O)Nc2ccc(F)cc2)CC12CCCCC2	-16	2.55	
O=C(NCc1ccccc1)c1coc(CN2CCN(Cc3ccc(F)cc3F)CC2)n1	-9	1.34	
O=C(N[C@H]1CCCn2ncnc21)c1cc2n(n1)CCC2	1	-0.08	
COc1ccc(CCn2cc(C(N)=O)cn2)cc1	-12	1.05	
O=C(CNC(=O)[C@H]1CCS(=O)(=O)C1)Nc1cccc2ccccc12	-10	1.31	
CCc1nc(CNC(=O)c2ccc(-c3ccc(OC)c(OC)c3)cc2)no1	0	-0.04	
Cc1cc(C)n(C)c(=O)c1C(=O)NCc1cccnc1N1CCCN(C)CC1	-12	1.13	
CN(CCNc1ncc(F)c(N2CCOCC2)n1)S(C)(=O)=O	7	-0.96	
CC(OC(=O)C1CCCN1S(C)(=O)=O)C(=O)Nc1ccccc1C#N (centres undefined)	-12	1.35	
COc1ccc(C2(c3nc(C4CCCC4)nn3CC(=O)O)CC2)cc1	6	-0.85	
CC(C)C(=O)N1C[C@H](NC(=O)OC(C)(C)C)[C@@H](c2cnn(C)c2)C1	-2	0.31	

Structure (SMILES)	% Inhibition [%]	Z score	% Inhibition (2 µM)
c1ccc(-c2ccc3occc3c2)c(CN2CCOCC2)c1	8	-0.98	
O=C(C[n+]1ccccc1-c1nc(-c2ccc(Cl)cc2)cs1)c1ccccc1	-7	1	
O=S(=O)(Oc1cccc(-n2ccnc2)c1)c1cccnc1	-4	0.6	
C#CCCC1(CCC(=O)N2CC[C@H](COc3ccccc3)C2)N=N1	3	-0.32	
CC[C@H](C)NS(=O)(=O)c1cc(-c2cnc(C)o2)ccc1C	-7	1.26	
Cc1nc2ccc(NC(=O)c3ccc(CN4CCOCC4)cc3)cc2s1	-14	1.16	
Cc1oc(-c2ccccc2F)nc1C(=O)N1CCCC1	-14	1.43	
Cc1nc(C)c(C(=O)NCc2ccnc(-c3cnn(C)c3)c2)s1	-9	1.37	
CCC(C)(C)NCc1ccc(OC)c(OC)c1	-4	0.41	
CCOc1ccc2c(c1)N(C(=O)[C@H](Cc1ccccc1)N1C(=O)c3ccccc3C1=O)C(C)(C)C=C2C	-7	0.76	
C=CCNC(=O)N[C@H]1CCN2C(=O)c3ccccc3NC(=O)[C@@H]2C1	-3	0.35	
Cn1cc(CCc2nc(-c3ccsc3)no2)cn1	1	-0.18	
Cc1cc(-c2ncccc2NC(=O)NC2C(=O)NCCC2C)cs1 (centres undefined)	-6	0.91	
O=S(=O)(CC1CCOCC1)N1CC2COCC(C1)O2	0	0.02	
Oc1cc(CN2CCN(c3cc(C4CC4)n[nH]3)CC2)nc(-c2ccccc2)n1	-5	0.75	
Cc1cccc(NC(=O)Nc2nnc3cccc(Cl)n23)c1	-15	1.65	
CCCCOc1ccc(-c2nn(-c3ccccc3)cc2C=C(C(=O)Nc2cccc(C(F)(F)F)c2)C(=O)Nc2cccc(C(F)(F)F)c2)cc1	-2	0.27	
COCCn1ccnc1CN1C[C@@H]2NC(=O)CN(C)C(=O)c3ccc(C)c(c3)Oc3cccc(c3)CO[C@H]2C1	-1	0.14	
CC(=O)c1nc2ccccc2n(CCOCCn2c(=O)c(C(C)=O)nc3ccccc32)c1=O	1	-0.15	
Cc1nc2c(=O)[nH]nc(-c3ccco3)c2s1	-39	4.57	
O=C(NCc1cccnc1-n1ccnc1)c1ccc(Cl)cc1	-9	1.16	
Cc1cccc(CNC(=O)c2c(C)noc2-c2ccc(C(C)(C)C)cc2)c1	-16	2.14	

Structure (SMILES)	% Inhibition [%]	Z score	% Inhibition (2 µM)
C=C(C)CS(=O)(=O)Nc1ccc(C2CC(=O)NC(=O)C2)cc1	-13	1.53	
COc1ccc(-c2cc(C(=O)N3C[C@H]4C[C@@H](C3)C3CCCC(=O)N3C4)[nH]n2)cc1OC (some centres undefined)	-7	0.95	
O=C1Cc2cc(/C=C/c3ccccc3)ccc2N1	2	-0.36	
Cc1nc(C)c(-c2cccc(C(=O)N[C@H]3CS(=O)(=O)C[C@@H]3O)c2)s1	-2	0.4	
CCCc1nc(CN(C)c2nnnn2-c2ccccc2)no1	-17	3.25	
CCCc1nnsc1C(=O)N1C2CCC1COC2	-11	2.18	
CC(C)(CC(N)=O)NC(=O)[C@@H]1CC=CCC1	-8	0.83	
N[C@H]1C[C@@H](c2cc(N3CC(OCc4ccccc4F)C3)ncn2)C1	3	-0.53	
O=C(Cn1c(-c2ccccc2)nn(-c2ccc(Cl)cc2)c1=O)NCCF	-4	0.54	
CCC(C)C(C)(O)CNC(=O)C(C)(C)S(=O)(=O)C1CC1 (centres undefined)	-4	0.45	
Cc1noc(C)c1CCc1nnc(C2CCOCC2)o1	-1	0.11	
Cc1cccc(C)c1Oc1ncccc1CNC(=O)c1cc(=O)[nH][nH]1	-2	0.32	
O=C1Nc2cc(Cl)ccc2Oc2ccc(S(=O)(=O)N3CCc4ccccc4C3)cc21	2	-0.25	
CCOc1cc(Cl)ccc1CNC(=O)Cc1cccnc1	-13	1.71	
CCc1nnc(COc2ccc3c(c2)OC2(CCCCC2)CC3=O)o1	-14	1.75	
O=C(CCCn1cccn1)N1CCCN(c2nc3ccccc3s2)CC1	-11	1.12	
CC(C)CN(CC(C)C)CN1C(=O)C(=O)c2cc3c(cc21)OCCO3	-5	0.91	
COC(=O)[C@@H](O)C(C)(C)NCc1ccon1	-9	1.09	
CCC(C)CS(=O)(=O)NC(C)C1CC1 (centres undefined)	-4	0.39	
COC(C)c1nsc(N2CCCNC(=O)C2C)n1 (centres undefined)	7	-1.36	
CCn1ccnc1C(NC(=O)C1Cc2ccccc21)C1CCOCC1 (centres undefined)	2	-0.3	
CCOCCn1nnc(Cc2ccccc2C)n1	-2	0.29	

Structure (SMILES)	% Inhibition [%]	Z score	% Inhibition (2 µM)
CCC(CC)n1nc(C(=O)Nc2c(C)nc(O)nc2O)cc1C	-10	1.81	
CCc1onc(C)c1NC(=O)N[C@H]1[C@@H]2COC[C@@H]21	-10	0.85	
CCc1noc2nc(C)nc(N3CCC[C@H](C(=O)NCc4ccccc4F)C3)c12	0	-0.02	
O=S(=O)(Cc1csc(COc2ccc(Cl)cc2)n1)C1CCOCC1	-15	2.85	
O=C1CC(C(=O)Nc2ccccc2C(=O)N2CCCCC2)C1	-8	1.12	
Cc1ccc(CN(CC(=O)N[C@](C)(C#N)C2CC2)C(C)C)s1	-5	0.6	
CC(C)N(C)CCNC(=O)COC1CCCCC1	-3	0.51	
O=C(Cn1cccn1)NCCCc1ccc(Br)cc1F	1	-0.12	
COc1cc(=O)c(C(=O)N2CCc3ccccc3C2)nn1-c1ccc(C)cc1	0	-0.01	
COCCc1noc(-c2cn(Cc3ccc(F)cc3Cl)nn2)n1	-14	1.88	
O=C(c1cn2c(n1)COCC2)N1CCOC[C@@H]1CC1CC1	1	-0.19	
CC(C)C[C@H](NC(=O)C(C)Cc1cnc[nH]1)C(=O)O (some centres undefined)	-9	1.15	
COCCN(Cc1c(C(C)C)nn(-c2ccccc2)c1Oc1cccc(F)c1)C(=O)c1cccc(F)c1	-13	1.21	
Cc1c(Cl)cccc1C(=O)N1CCC[C@H](CN2CCOCC2)C1	2	-0.39	
Cc1cc2nc(-c3cccc(NC(=O)c4cccc5ccccc45)c3C)oc2cc1C	-2	0.26	
O=C(Cc1ccsc1)N1CC[C@@]2(CCCN(CC3CCC3)C2=O)C1	-4	0.84	
CC1CCC(O)(CNC(C)C2CCCO2)CC1 (centres undefined)	-15	2.37	
Cc1cc(C(=O)NCC2(NC(=O)c3cc(C)oc3C)CCOCC2)c(C)o1	5	-0.64	
O=C(NC1CCCC1)c1cn([C@H]2CCCN(Cc3ccc(OC(F)(F)F)cc3)C2)nn1	-8	1.04	

Reference: ChEMBL document CHEMBL4888484, “Replenishing the malaria drug discovery pipeline: Screening and hit evaluation of the MMV Hit Generation Library 1 (HGL1) against asexual blood stage Plasmodium falciparum ,using a nano luciferase reporter read-out” (2022)
